Reference: the supplement of paper PMC9151546
Single values are uncertain, as repeats are few or missing.

Tests used:
CHO-K1 [1] = test: micronucleus frequency (% of nucleated events); higher = more micronuclei (genotoxic)
CHO-K1 [2] = test: relative survival (nuclei to bead ratio vs DMSO control) (% of vehicle control); higher = more surviving cells
Method: (§1)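 Flow-cytometric in vitro micronucleus assay (Litron MicroFlow) in CHO-K1 cells in 96-well plates, 19 concentrations (4.5-200 µM, n=1 per concentration). Without S9, cells were exposed for 24 h and sampled at 48 h. With Aroclor 1254-induced rat liver S9, cells were exposed for 3-4 h and sampled at 27-28 h. Read-outs are %MN and %hypodiploid nuclei relative to nucleated events, and relative survival as the nuclei-to-bead ratio versus the 1% DMSO vehicle control (x100).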

CHO-K1 [3] = test: hypodiploid nuclei frequency (% of nucleated events); higher = more hypodiploid events (aneugenic)
Method: as §1
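Wherever hypodiploid nuclei frequency (% of nucleated events) is given: hypodiploid nuclei gated on a flow cytometer with 488 nm excitation after SYTOX Green staining, cultures at 37 °C, positive controls vinblastine without S9 and cyclophosphamide with S9.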
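Wherever micronucleus frequency (% of nucleated events) is given: cells lysed with nuclei stained by SYTOX Green, then micronucleus-gated events counted against nucleated events by flow cytometry with 488 nm excitation.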
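Wherever relative survival (nuclei to bead ratio vs DMSO control) is given: Lysed-cell nuclei stained with SYTOX Green and counted against counting beads by flow cytometry at 488 nm excitation, with vinblastine (no S9) and cyclophosphamide (plus S9) as positive controls.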

CCOCN(C(=O)CCl)c1c(C)cccc1CC [Acetochlor]
Conditions | hypodiploid nuclei frequency, CHO-K1 [3] [%] | micronucleus frequency, CHO-K1 [1] [%] | relative survival, CHO-K1 [2]
concentration: 4.5 (µM), S9 metabolic activation: with S9, exposure time: 3-4 hours | 0.1 | 1.04 | 107
concentration: 4.5 (µM), S9 metabolic activation: without S9, exposure time: 24 hours | 0.62 | 1.74 | 96
concentration: 5.63 (µM), S9 metabolic activation: with S9, exposure time: 3-4 hours | 0.32 | 1.16 | 90.6
concentration: 5.63 (µM), S9 metabolic activation: without S9, exposure time: 24 hours | 0.82 | 2.22 | 117
concentration: 7.04 (µM), S9 metabolic activation: with S9, exposure time: 3-4 hours | 0.22 | 1.38 | 81
concentration: 7.04 (µM), S9 metabolic activation: without S9, exposure time: 24 hours | 0.82 | 2.26 | 101
concentration: 8.8 (µM), S9 metabolic activation: with S9, exposure time: 3-4 hours | 0.22 | 1.42 | 87.9
concentration: 8.8 (µM), S9 metabolic activation: without S9, exposure time: 24 hours | 0.84 | 2.58 | 110
concentration: 11 (µM), S9 metabolic activation: with S9, exposure time: 3-4 hours | 0.18 | 1.8 | 82.5
concentration: 11 (µM), S9 metabolic activation: without S9, exposure time: 24 hours | 0.74 | 1.76 | 92.7
concentration: 13.7 (µM), S9 metabolic activation: with S9, exposure time: 3-4 hours | 0.26 | 1.76 | 94.7
concentration: 13.7 (µM), S9 metabolic activation: without S9, exposure time: 24 hours | 0.52 | 1.98 | 91.1
concentration: 17.2 (µM), S9 metabolic activation: with S9, exposure time: 3-4 hours | 0.24 | 1.82 | 94.2
concentration: 17.2 (µM), S9 metabolic activation: without S9, exposure time: 24 hours | 0.7 | 2.56 | 108
concentration: 21.5 (µM), S9 metabolic activation: with S9, exposure time: 3-4 hours | 0.24 | 1.54 | 89.7
concentration: 21.5 (µM), S9 metabolic activation: without S9, exposure time: 24 hours | 0.74 | 2.04 | 97.4
concentration: 26.8 (µM), S9 metabolic activation: with S9, exposure time: 3-4 hours | 0.36 | 1.2 | 108
concentration: 26.8 (µM), S9 metabolic activation: without S9, exposure time: 24 hours | 0.84 | 2.46 | 112
concentration: 33.6 (µM), S9 metabolic activation: with S9, exposure time: 3-4 hours | 0.28 | 1.08 | 109
concentration: 33.6 (µM), S9 metabolic activation: without S9, exposure time: 24 hours | 0.92 | 2.78 | 96.9
concentration: 41.9 (µM), S9 metabolic activation: with S9, exposure time: 3-4 hours | 0.38 | 2.38 | 123
concentration: 41.9 (µM), S9 metabolic activation: without S9, exposure time: 24 hours | 0.72 | 2.34 | 108
concentration: 52.4 (µM), S9 metabolic activation: with S9, exposure time: 3-4 hours | 0.28 | 1.54 | 94.7
concentration: 52.4 (µM), S9 metabolic activation: without S9, exposure time: 24 hours | 0.76 | 2.96 | 88.5
concentration: 65.5 (µM), S9 metabolic activation: with S9, exposure time: 3-4 hours | 0.32 | 1.76 | 77.3
concentration: 65.5 (µM), S9 metabolic activation: without S9, exposure time: 24 hours | 0.62 | 1.94 | 101
concentration: 81.9 (µM), S9 metabolic activation: with S9, exposure time: 3-4 hours | 0.22 | 1.58 | 82
concentration: 81.9 (µM), S9 metabolic activation: without S9, exposure time: 24 hours | 0.68 | 3.84 | 102
concentration: 102 (µM), S9 metabolic activation: with S9, exposure time: 3-4 hours | 0.2 | 2.56 | 69.5
concentration: 102 (µM), S9 metabolic activation: without S9, exposure time: 24 hours | 1.34 | 2.82 | 76.2
concentration: 128 (µM), S9 metabolic activation: with S9, exposure time: 3-4 hours | 0.2 | 3.15 | 44.2
concentration: 128 (µM), S9 metabolic activation: without S9, exposure time: 24 hours | 1.24 | 3.76 | 67.3
concentration: 160 (µM), S9 metabolic activation: with S9, exposure time: 3-4 hours | 0.28 | 4.25 | 41.5
concentration: 160 (µM), S9 metabolic activation: without S9, exposure time: 24 hours | – | – | 21.7
concentration: 200 (µM), S9 metabolic activation: with S9, exposure time: 3-4 hours | – | – | 24.6
concentration: 200 (µM), S9 metabolic activation: without S9, exposure time: 24 hours | – | – | 0.25
